# Laboratory results reported in PubChem BioAssay AID493208 (National Center for Advancing Translational Sciences (NCATS), 2011).
# About 340 (0.77%) of roughly 44,000 compounds were called active. Inconclusive results, whose numbers are uncertain, are shown with a selection of clear calls. The call rests on the fitted dose curve; in most records, active means well fitted inhibition curve with a large enough effect; inconclusive means small, poorly fitted or top-dose-only effect; inactive means flat fitted curve, though single readings scatter. No potency is given beside an inconclusive call; the fits are too rough.
# Assay: Acumen qHTS Assay for Inhibitors of the mTORC1 Signaling Pathway in MEF (Tsc2-/-, p53-/-) Cells: Sytravon; further: nearly all actives have a fitted effect of over 50% in size
# Settings: phospho-rpS6 immunofluorescence/PI, 24 h; series mostly up to 38.3 µM
# Procedure, shortened: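 Readout is phospho-S6 Alexa 488 signal normalized to PI per well, reported as % active cells with thresholds set from rapamycin (7.5 nM) and DMSO controls. Cells: Tsc2-/-, p53-/- MEFs, 24 hrs compound at 37 C; PI cell number serves as viability.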
# Potency means the concentration at half of the fitted maximal effect; tags describe the fitted curve by direction and shape.
row,SMILES,Potency
1,CCOCCCNC(=O)C1CCN(c2nc3ccc(Cl)cc3[nH]2)CC1,"inconclusive [falling, single point]"
2,Cc1cc(S(=O)(=O)Nc2ccc3oc4c(c3c2)CCCC4)ccc1Cl,inactive
3,COc1cc(C2C(C(=O)Nc3ccccc3C)=C(C)Nc3nc(SCc4cc(C)ccc4C)nn32)ccc1O (stereo not drawn),"inconclusive [falling, partial curve, poor fit]"
4,Clc1cccc(-n2ncc3c(NC4CCCCCC4)ncnc32)c1,inactive
5,CN(C)c1ccc(NC(=O)Cn2cc(S(=O)(=O)Cc3ccccc3Cl)c3ccccc32)cc1,"inconclusive [falling, single point]"
6,Cc1ccccc1Nc1c(-c2c[nH]c3ccccc23)nc2cccc(C)n12,"inconclusive [falling, single point]"
7,COCCCNC(=O)c1ccc(-n2c(-c3ccccc3)cc3c2CCCCC3)cc1,"inconclusive [falling, single point]"
8,COc1cccc(NC(=O)N(Cc2c[nH]c3ccccc23)C2CCCCC2)c1,inactive
9,O=C(Nc1ccc(F)cc1F)N1CCN(c2ccc(Cl)c(Cl)c2)CC1,"inconclusive [falling, single point]"
10,CN(C)CCNC(=O)c1ccc(Cn2c(=O)c3cccn3c3cccnc32)cc1,"inconclusive [falling, partial curve, poor fit]"
11,Cc1ccc(-n2ncc(C(=O)NCCN3CCc4ccccc4C3)c2C2CCNCC2)cc1C,"inconclusive [falling, single point]"
12,Cc1cccc(NC(=O)c2oc3ccc(S(=O)(=O)N4CCC5(CC4)OCCO5)cc3c2C)c1C,"inconclusive [falling, single point]"
13,COc1ccc(-c2ccc(CCC(=O)O)n2-c2cc(Cl)ccc2O)cc1,"inconclusive [falling, partial curve, poor fit]"
14,CCN1CCC(N(Cc2ccc(F)cc2)C(=O)Nc2ccc(C)c(F)c2)CC1,active: 16.5 µM
15,Cc1cccc2nc(-c3ccc(Cl)s3)c(Nc3ccc4c(c3)OCCO4)n12,"inconclusive [falling, full curve, poor fit]"
16,Cc1ccccc1-n1c(SCC(=O)c2ccccc2)nnc1-c1ccc(F)cc1,"inconclusive [falling, single point]"
17,O=C1CC(c2ccccc2)Cc2[nH]c(=O)c(-c3nc(-c4cccc(Cl)c4)cs3)cc21 (stereo not drawn),active: 11.7 µM
18,COc1ccc(CNC(=O)C(=O)NCC(c2ccc3c(c2)OCO3)N2CCOCC2)cc1 (stereo not drawn),inactive
